# Measured values from PubChem BioAssay AID1508624 (National Center for Advancing Translational Sciences (NCATS), 2021).
# In all, about 48,000 compounds went through this assay and about 120 (0.25%) were called active. Inconclusive results (about 4%) are left out. Calls follow the shape of the dose curve; as a rule, active = well fitted activation curve with a large enough effect; inconclusive = small, poorly fitted or top-dose-only effect, or another doubt; inactive = no such curve, though single readings can be large or run the other way. This is one part of the list.
# Assay: Primary qHTS for Identification of Small Molecule Activators of Huntingtin-Antisense Promoter Activity; also: nearly all actives have a fitted effect of over 55% in size
# Conditions: HEK293 HTT-AS promoter firefly luciferase reporter, 24 h; series mostly up to 57.5 µM; activity change, positive = activation: at the top concentration
# Outline: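 Firefly luciferase readout (Dual-Glo, 10 min RT) after 24 h, 37 °C compound exposure (final up to 57.5 uM) of HEK293 reporter cells cultured 24 h beforehand; PTC124 at 50 uM final as control inhibitor; activity scaled vehicle 0%, zero RLU -100%.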
row,Compound,"activity change, positive = activation"
1,COc1ccc(-c2cc(C(=O)NCCc3ccc(OC)c(OC)c3)c3c(-c4ccc(F)cc4)[nH]nc3n2)cc1,inactive: 0%
2,CCOC(=O)c1ccc(NC(=O)Cn2c3ncccc3c(=O)n2-c2ccc(C)c(C)c2)cc1,inactive: -27.7%
3,Cc1cc(C)n(-c2nc(C)c(C)c(=O)n2CC(=O)Nc2cccc([N+](=O)[O-])c2)n1,inactive: -7.19%
4,COc1ccc(OC)c(NC(=O)N2CC3CCCN3c3ccccc32)c1 (stereo not given),inactive: -28.8%
5,CN[C@H](CC(C)C)C(=O)N[C@H]1C(=O)N[C@@H](CC(N)=O)C(=O)N[C@@H]2C(=O)N[C@H]3C(=O)N[C@H](C(=O)N[C@H](C(=O)O)c4cc(O)cc(O)c4-c4cc3ccc4O)[C@H](O)c3ccc(c(Cl)c3)Oc3cc2cc(c3O[C@@H]2O[C@H](CO)[C@@H](O)[C@H](O)[C@@H]2O[C@H]2C[C@](C)(N)[C@H](O)[C@H](C)O2)Oc2ccc(cc2Cl)[C@H]1O,inactive: 3.92%
6,CC(=O)c1ccc(NC(=O)CC2Oc3ccc(C)cc3NC2=O)cc1 (stereo not given),inactive: -19.2%
7,CCOC(=O)Cc1c(C(=O)OCC)nnc2c(-c3ccccc3)c(C)nn12,inactive: -4.41%
8,CCOC(=O)c1cccc(NC(=O)N2CC=C(c3c[nH]c4ccccc34)CC2)c1,inactive: -18.2%
9,COc1cccc(N2CCN(c3ncnc4c3c(-c3ccccc3)cn4-c3cccc(C(F)(F)F)c3)CC2)c1,inactive: -18.3%
10,CCN(CC)C(=O)Cn1c(=O)n(CCc2ccccc2)c(=O)c2ccccc21,inactive: -12.5%
11,CCCNC(=O)N1[C@H](c2cccs2)[C@@H](C)C(=O)[C@@H](C)[C@@H]1c1cccs1,inactive: -10.4%
12,Cc1cc(Nc2ccc(Br)c(C)c2)n2nc(-c3ccco3)nc2n1,inactive: -26.6%
13,O=C(O)c1c(Cl)c(Cl)c(Cl)c(Cl)c1-c1c2cc(I)c(=O)c(I)c-2oc2c(I)c(O)c(I)cc12,inactive: -46%
14,COc1ccc(S(=O)(=O)NCC(c2ccc(N(C)C)cc2)N2CCc3ccccc32)cc1F (stereo not given),inactive: -30.4%
15,Cc1cc(C)n2nc(CNS(=O)(=O)c3ccccc3)nc2n1,inactive: -6.44%
16,CCOC(=O)c1ccccc1NC(=O)COC(=O)CC(C)(C)CC1=NS(=O)(=O)c2ccccc2N1,inactive: -52.9%
17,Cc1cccc(Nc2nnc(-c3ccc(C)c(S(=O)(=O)N4CCN(C)CC4)c3)c3ccccc23)c1,inactive: -35.7%
18,Cc1nn2c(=O)cc(COC(=O)c3cccc(NC(=O)c4ccc(F)cc4)c3)nc2s1,inactive: -43.5%
19,Cc1ccc(Cl)cc1NC(=O)Cn1c(=O)n(C(C)C)c(=O)c2oc3ccccc3c21,inactive: -6.62%
20,Cc1cccc(C(C)C)c1NC(=O)c1ccc2c(c1)CCN2S(C)(=O)=O,inactive: -11.4%
21,CCn1c(CN2CCC(C)CC2)nc2cc(NC(=O)c3ccc([N+](=O)[O-])cc3)ccc21,inactive: -24.9%
22,CC(C)CCNC(=O)C(=O)Nc1c2c(nn1-c1ccc(Cl)cc1)CSC2,inactive: -0.922%
23,Cc1ccc(-n2nc(-c3ccccc3)c3cnc4cc5c(cc4c32)OCO5)cc1C,inactive: -7.71%
24,CC(=O)Nc1cccc(NC(=O)CSc2ccc(-c3sc(-c4ccccc4)nc3C)nn2)c1,inactive: -4.26%
25,O=C(O)CCc1ccc(-c2ccccc2)n1-c1ccc(C(=O)O)cc1,inactive: -13.5%
26,Cc1cccc(NC(=O)N2CCC(CN3CCCCCC3)CC2)c1C,inactive: -0.211%
27,CC1CCN(S(=O)(=O)c2ccc3c(c2)CCN3C(=O)Nc2ccc(Br)cc2F)CC1,inactive: -1.6%
28,CCOc1ccccc1C(=O)N1CCC(c2nc3ccccc3o2)CC1,inactive: -34.3%

row,Compound,"activity change, positive = activation"
1,Cc1nc(SCC(=O)Nc2ccc(C(=O)O)cc2)n[nH]1,inactive: -6.31%
2,COc1ccc(OC)c(NC(=O)CC(=O)Nc2ccc3nc4n(c(=O)c3c2)CCCCC4)c1,inactive: -16.1%
3,CCc1ccccc1NC(=O)Cn1nc(N2CCN(c3ccccc3OC)CC2)ccc1=O,inactive: -17.4%
4,O=C1c2ccccc2S(=O)(=O)N1CCCCN1CCN(c2ncccn2)CC1,inactive: -4.09%
5,CN(C)CCCO[C@@H]1[C@H]2OC(C)(C)O[C@H]2O[C@@H]1C(O)CO (stereo not given in full),inactive: -0.253%
6,CCOc1ccc(N(CC)S(=O)(=O)N2CCCC(C(=O)Nc3ccc(OC)c(Cl)c3)C2)cc1 (stereo not given),inactive: -29.1%
7,Cc1cccc(NC(=O)CN2C(=O)CSc3ccc(S(=O)(=O)N4CCCC4)cc32)c1C,inactive: -14%
8,COc1cccc(NC(=O)CSc2c3c(nc4ccccc24)CCCC3)c1,inactive: 2.89%
9,O=C(Nc1ccccc1C(F)(F)F)N1CC=C(c2c[nH]c3ccccc23)CC1,inactive: -12%
10,COC(=O)CC(=O)CSc1nc2cc(C(=O)NCC(C)C)ccc2c(=O)n1CCc1ccccc1,inactive: -2.79%
11,COc1ccc(-c2onc(C)c2C)cc1S(=O)(=O)N1CCN(c2cc(C)ccc2C)CC1,inactive: -8.75%
12,Cc1c(Cl)ccc2sc(N3CCN(C(=O)C4CC4)CC3)nc12,inactive: -4.18%
13,COc1ccc(-c2cc3nc(C)c(CCC(=O)NC(C)c4ccccc4)c(C)n3n2)c(OC)c1 (stereo not given),inactive: -18.9%
14,Cc1nn(C(=O)c2cccc([N+](=O)[O-])c2C)c(C)c1S(=O)(=O)N1CCCCCC1,inactive: -2.89%
15,Cn1cc(S(=O)(=O)c2cccc(Cl)c2)c(=O)c2cc(F)c(N3CCCCC3)cc21,inactive: -15%
16,O=C(NCCc1ccc(Cl)cc1)c1ccc(CSCc2cccc(Cl)c2)o1,inactive: -9.54%
17,Cc1ccc(Cl)cc1NC(=O)c1oc2ccc(S(=O)(=O)N3CCCCCC3)cc2c1C,inactive: 19.2%
18,Cc1cc(C)cc(OCC(=O)N2CCC(c3nc4ccccc4s3)CC2)c1,"inactive: -9.54% [at 11.5 µM, percent change from vehicle, -100% = no light]"
19,CCc1cccc(C)c1NC(=O)CSc1nc2c(c(=O)[nH]1)CCC2,inactive: -22.2%
20,NC(=O)CSc1nc2ccc(NC(=O)COc3ccccc3Cl)cc2s1,inactive: -15.1%
21,Cn1c([N+](=O)[O-])cnc1COC(N)=O,inactive: -6.87%
22,CS(=O)(=O)N(Cc1ccccc1)c1ccc(C(=O)Nc2ccc(Cl)cc2)cc1,inactive: -53.3%
23,Cc1cccc(-n2nc(C)c(C(=O)N3CCN(c4ccccc4)CC3)c2-n2cccc2)c1,inactive: -24.5%
24,Cc1cc(F)ccc1NC(=O)CCn1nc(C)c(S(=O)(=O)N2CCCCC2)c1C,inactive: -25.3%
25,COc1ccccc1C(=O)Nc1ccc(S(=O)(=O)Nc2ncccn2)cc1,inactive: -3.83%
26,Cc1ccc(C)c(N2CCN(C(=O)C(CC(C)C)NS(=O)(=O)c3ccc4nc(C)sc4c3)CC2)c1 (stereo not given),inactive: -25.7%
27,CCOc1ccc(-c2cc(C(=O)NCCc3ccc(OC)c(OC)c3)c3c(-c4ccc(F)cc4)[nH]nc3n2)cc1,inactive: -55.3%
